Source: PubChem BioAssay AID1030 (National Center for Advancing Translational Sciences (NCATS), 2008)
Hit rate of the full screen: of about 220,000 compounds, about 16,000 (7.3%) were called active. Inconclusive results, whose numbers are uncertain, are shown with a selection of clear calls. Calls come from the whole dose curve; as a rule, active = well fitted inhibition curve with a large enough effect (not every such curve was filed as active); inconclusive = small, poorly fitted or top-dose-only effect, or another doubt; inactive = no such curve, though single readings can be large or run the other way. A potency beside an inconclusive call is a rough fit, not a confirmed value.

Target: Aldehyde dehydrogenase 1A1 (Homo sapiens) (UniProt P00352)
UniProt P00352, sequence (P00352 whole entry, looked up): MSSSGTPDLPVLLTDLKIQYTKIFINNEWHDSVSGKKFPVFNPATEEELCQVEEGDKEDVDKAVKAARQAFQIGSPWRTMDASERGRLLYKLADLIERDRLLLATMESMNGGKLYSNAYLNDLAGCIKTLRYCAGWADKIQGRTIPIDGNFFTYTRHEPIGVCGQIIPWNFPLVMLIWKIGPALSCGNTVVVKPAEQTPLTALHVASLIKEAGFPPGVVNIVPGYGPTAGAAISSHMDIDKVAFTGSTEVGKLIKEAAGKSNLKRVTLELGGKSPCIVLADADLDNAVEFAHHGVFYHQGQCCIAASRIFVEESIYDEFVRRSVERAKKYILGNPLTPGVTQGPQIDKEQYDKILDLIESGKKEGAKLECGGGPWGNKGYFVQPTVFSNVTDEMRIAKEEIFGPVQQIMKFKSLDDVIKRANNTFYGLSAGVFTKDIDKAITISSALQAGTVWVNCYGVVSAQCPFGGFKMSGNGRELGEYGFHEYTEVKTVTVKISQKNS
Test: qHTS Assay for Inhibitors of Aldehyde Dehydrogenase 1 (ALDH1A1);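 for activity, negative = inhibition: plate controls were no enzyme wells and a reference inhibitor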
Details: Purified ALDH1A1, NADH fluorescence, propionaldehyde substrate; series mostly up to 75.3 µM; activity, negative = inhibition: at the top concentration
Potency is the fitted concentration of half-maximal effect; tags give direction and shape of the fitted curve.

Potency, inconclusive:
Cc1cc(C(=O)NNC(=S)NC(C)c2ccccc2)cs1 (stereo unspecified) 31.6 µM [inhibitor, single point]
COc1ccc(C2C(C(=O)Nc3cccc(C)n3)CCC(=O)N2c2ccc(OC)cc2)cc1 (stereo unspecified) 20 µM [inhibitor, single point]
COc1ccc(-c2[nH]nc3oc(=O)cc(C)c23)cc1 20 µM [inhibitor, partial curve]
COc1cccc(NC(=O)Nc2ccncc2)c1 5.01 µM [inhibitor, partial curve, poor fit]
CCOc1ccc2nc(Cl)c(/C=C/C(=O)c3ccco3)cc2c1 39.8 µM [inhibitor, single point]
COc1ccccc1N1CCN(Cc2nc(N)nc(Nc3ccc(C)cc3)n2)CC1 35.5 µM [inhibitor, single point]
Cc1cccc(C(C)(C)C)c1OCCN1CCCC1 25.1 µM [inhibitor, single point]
Cc1cc(O)c(/C=N/Nc2ccc(F)cc2)c(=O)o1 44.7 µM [inhibitor, single point]
Cc1ccc(NC(=O)COC(=O)CCC(=O)c2cccs2)cc1 39.8 µM [inhibitor, single point]
c1ccc2nc(-c3ccc4c(c3)OCO4)ccc2c1 39.8 µM [inhibitor, single point]
COC(=O)c1c(NC(=O)c2ccc(OC(C)C)cc2)sc2c1CC(C)(C)NC2(C)C 25.1 µM [inhibitor, partial curve]
COc1ccc(C(CC(=O)c2ccc(O)cc2)S(=O)(=O)c2ccc(C)cc2)cc1 (stereo unspecified) 17.8 µM [inhibitor, single point]

Potency, active:
COc1cc([N+](=O)[O-])ccc1NC(=O)C[n+]1ccccc1 14.1 µM
CCOC(=O)CC1=NN(c2ccccc2)C(=O)/C1=C\c1ccc(N(C)C)cc1 5.01 µM
CCOc1ccc(S(=O)(=O)N2CCCCC2)c2ccccc12 31.6 µM

activity, negative = inhibition, inactive:
O=C(CSc1nc(-c2ccco2)cc(C(F)(F)F)n1)NCCN1CCOCC1 4.62%
CC(C)NC(=S)NN=C1CCCCCCCCCCC1 -4.75%
CC(C)(C)c1ccc(-c2nnc(SCc3ccc(Cl)cc3)n2-c2cccc(C(F)(F)F)c2)cc1 11.5% [at 13.5 µM]
CC1CC(=O)C(C2c3ccccc3CCN2C(=O)CCl)C(=O)C1 (stereo unspecified) -6.51%
Cc1ccccc1NC(=O)c1c(C)[nH]c(=S)c(C#N)c1-c1ccco1 -0.51%
COc1cccc2c1OC(=O)CC2c1ccccc1C (stereo unspecified) -10.6% [at 120 µM]
